Source: paper PMC7819943, “Rice protein-binding microarrays: a tool to detect cis-acting elements near promoter regions in rice”
The list shows a part of the results.

molecular target: T1, OsWOX13 (Oryza sativa, UniProt Q5QMM3 1-267); experiment: protein-binding microarray (RPBM); PBS, 2% BSA, 51.3 ng/ul salmon testes DNA, 50 uM zinc acetate, 200 nM TF, 25 C, 1 h; high values mean tight binding; settings: protein: recombinant; tags: N-terminal polyhistidine and DsRed monomer fusion (pET32a); label: CyDye5-dUTP incorporated in the synthesized complementary strand; 3' TTTTT single-stranded linker to array surface; dsDNA, one strand shown
T1 sequence: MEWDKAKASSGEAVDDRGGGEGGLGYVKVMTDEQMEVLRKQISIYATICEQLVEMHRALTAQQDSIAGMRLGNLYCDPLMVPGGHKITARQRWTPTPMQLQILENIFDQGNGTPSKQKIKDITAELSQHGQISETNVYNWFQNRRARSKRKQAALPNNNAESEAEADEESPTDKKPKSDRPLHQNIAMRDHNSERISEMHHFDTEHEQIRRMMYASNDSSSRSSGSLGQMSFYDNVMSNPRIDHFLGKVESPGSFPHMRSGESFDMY
In short: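 An Axon 4000B scanner gave the binding signal as per-feature fluorescence intensity in arbitrary units. This followed washing of a custom Agilent array that had been incubated for 1 h at 25 °C with 200 nM protein in PBS, 2% BSA, salmon testes DNA and 50 µM zinc acetate. The proteins were transcription factors fused at the N-terminus to polyhistidine and DsRed, expressed in E. coli BL21-CodonPlus and purified on Ni–NTA.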

Sequence | binding signal
GGCTAATTTGAGGCTAAAATGTGAGGGCTAAACAGTGGGGCGGAGTCACCTAGTGCAG | 22600 fluorescence intensity (a.u.)
GAACTAAAATAGATATTCCTGATTTATAGGGCAGACGAAGCGGAGTCACCTAGTGCAG | 4040 fluorescence intensity (a.u.)
GATAAATCTAGTAACATTAATTTTAGATGTTTGATCTTTTCGGAGTCACCTAGTGCAG | 6500 fluorescence intensity (a.u.)
AGATACTAATTTAGAGTATTAAATATAGACTACTTATAAACGGAGTCACCTAGTGCAG | 4070 fluorescence intensity (a.u.)
GACTAAATGACAAACTACCTTTGCTTCCATCGCCAACTAACGGAGTCACCTAGTGCAG | 7060 fluorescence intensity (a.u.)
CCAGGGTGATTAGCTTTACGTTTTAATAATGCTATAGAATCGGAGTCACCTAGTGCAG | 21000 fluorescence intensity (a.u.)
ACTTGTAGTAATTTAATTTGAAATTCTGTTCTTGCCTCTGCGGAGTCACCTAGTGCAG | 6760 fluorescence intensity (a.u.)
ATCTGGCCCTAATTATTTGTTGCCGAATACCAAGTGTTTGCGGAGTCACCTAGTGCAG | 4490 fluorescence intensity (a.u.)
ATGATTAGTTCGTACGTATTGCGCGCACAAACAAATGTATCGGAGTCACCTAGTGCAG | 13900 fluorescence intensity (a.u.)
AAATGATAGACTAAAATTTGGTAATGTCAAATTAGTTTGACGGAGTCACCTAGTGCAG | 12300 fluorescence intensity (a.u.)
GCAATAGACTAGATTAATAGTAAACCACTTCAATGGTATGCGGAGTCACCTAGTGCAG | 7530 fluorescence intensity (a.u.)
AACTGATTAGAAAATATTTAATAAATGTGTAGTCGAGTGGCGGAGTCACCTAGTGCAG | 43400 fluorescence intensity (a.u.)
GTAATTAGGCTAACTTTATAATTGGATCCGTTCATTCCAACGGAGTCACCTAGTGCAG | 15900 fluorescence intensity (a.u.)
CAGCTTAATTTGCTTGGTCGTTATGCCCACAATCTACACCCGGAGTCACCTAGTGCAG | 18800 fluorescence intensity (a.u.)
TGCAAAATAAATTAAAACGAGTATTGAAAGATGTCCACTTCGGAGTCACCTAGTGCAG | 3910 fluorescence intensity (a.u.)
AAAACAAATTACAGATTCCATCTGTAAACTGCGAGACGAACGGAGTCACCTAGTGCAG | 6630 fluorescence intensity (a.u.)
TTGAAATAATTAAAACTCAATTAATTACCTTCTTGTTTGTCGGAGTCACCTAGTGCAG | 24800 fluorescence intensity (a.u.)
AATAATTGAAAATTTTGTTTGAGTGCACATCGTGTGCATTCGGAGTCACCTAGTGCAG | 32400 fluorescence intensity (a.u.)
GATCATTTAAGTGATTATTTTAATTGGGAAAGTAATAAAACGGAGTCACCTAGTGCAG | 13200 fluorescence intensity (a.u.)
TACTAGTCGTAAATTAATTATCATCTTGTCTTATTTCTTTCGGAGTCACCTAGTGCAG | 8300 fluorescence intensity (a.u.)
AATTCCGATTTCTCCCTAAATTGGGAGGCCCATTGCTGAGCGGAGTCACCTAGTGCAG | 3710 fluorescence intensity (a.u.)

Sequence | binding signal
ATTACAATATTATAATTATATAACACAATTAAGGTAGAGTCGGAGTCACCTAGTGCAG | 11600 fluorescence intensity (a.u.)
AAGAGTGGTAAATAATTAATTATTCCATTATCTTCAGGTGCGGAGTCACCTAGTGCAG | 25600 fluorescence intensity (a.u.)
ACCACCTGCTGCTAATTGACAAGTTGTCTAATCAGTCGATCGGAGTCACCTAGTGCAG | 30000 fluorescence intensity (a.u.)
AATTTAAATTTTAAACTTACATTTAGAGTTAATTTTAAGGCGGAGTCACCTAGTGCAG | 12900 fluorescence intensity (a.u.)
TGTTAATTCCACATCAGCGCTACGTCAATGCCACGTGGTACGGAGTCACCTAGTGCAG | 5690 fluorescence intensity (a.u.)
AACCAATCACCGGCCGCGAGCGTCACCCCGGAAAATATAACGGAGTCACCTAGTGCAG | 12900 fluorescence intensity (a.u.)
ATAATGGATGTTGACAAAGTCGGTGGTATATTATTGAAACCGGAGTCACCTAGTGCAG | 3940 fluorescence intensity (a.u.)
TGCTCAATTAACAAAGTTGATTAATCAGACTAGTAGAATCCGGAGTCACCTAGTGCAG | 37000 fluorescence intensity (a.u.)
GCAGCTTTGATCATTTCAATCAGGTGATTCAGACCAAAGTCGGAGTCACCTAGTGCAG | 10100 fluorescence intensity (a.u.)
TAAAACTGATGCTAAACTTTCTAATCAAGCTATACCCATACGGAGTCACCTAGTGCAG | 8680 fluorescence intensity (a.u.)
GCAAACATAAAGTAATTTGTGAATATAATTTATATGTACTCGGAGTCACCTAGTGCAG | 7640 fluorescence intensity (a.u.)
CCTCTAACAGCTGGATTGCTGCACATGTTTCCTGATTCCTCGGAGTCACCTAGTGCAG | 3880 fluorescence intensity (a.u.)
ACGAACATGTTTAATTAAGCACAGTTGTCTAGGCTTCAGCCGGAGTCACCTAGTGCAG | 4100 fluorescence intensity (a.u.)
GTCATGACTCATGAATGCCAATTTAGGCTAAATTCGGCGCCGGAGTCACCTAGTGCAG | 5180 fluorescence intensity (a.u.)
ACTTACAAAACTAATTACATAAATAAAAGCTAATTCACGACGGAGTCACCTAGTGCAG | 4520 ± 107 fluorescence intensity (a.u.)
GTGGCTTAATTGGATGAAGTTACTGTGGGGAAACAGGGCCCGGAGTCACCTAGTGCAG | 34600 fluorescence intensity (a.u.)
ACTCTGTCATCAACTTAATTGTTAGAAGCGACCTAAAGATCGGAGTCACCTAGTGCAG | 22000 fluorescence intensity (a.u.)
GTAAATAGAGTGGATGCGCTGCACGCGGTTGGGGATGGGTCGGAGTCACCTAGTGCAG | 5730 fluorescence intensity (a.u.)
CTTCAATCAATTTCTCGCCCACAGATTAATTACACCAGCCCGGAGTCACCTAGTGCAG | 35900 fluorescence intensity (a.u.)
TTAACCAATTATAACTAGCAATATGCCCAAGCTAACGCTACGGAGTCACCTAGTGCAG | 3960 fluorescence intensity (a.u.)
CACTGATGAAGTGATGACACTCCATGCATCCAATCCAGGCCGGAGTCACCTAGTGCAG | 9860 fluorescence intensity (a.u.)
